Test results taken from patent US20180021277A1, “ANTI-VIRULENCE COMPOSITIONS AND METHODS” (priority 2012, published 2018).

Experiments:
MRSA strain USA300 [1] = assay: microbe, parasite or virus in culture; conditions: for inhibition of rabbit blood hemolysis compared to diflunisal: 1 μg/mL; for hemolysis at 1 µg/mL / hemolysis at 10 µg/mL: Staphylococcus aureus, Erythrocyte, in Oryctolagus cuniculus; for hemolysis at 1 µg/mL / hemolysis at 10 µg/mL / Hemolysis: DMSO control = 100
MRSA strain USA300 [2] = assay: microbe, parasite or virus in culture; conditions: for effect on the growth of the bacteria: 1 μg/mL; for activity at 1 µg/mL / activity at 10 µg/mL: Staphylococcus aureus, read-out: Growth; for Growth: DMSO control = 100

SMILES	inhibition of rabbit blood hemolysis compared to diflunisal (MRSA strain USA300 [1])	hemolysis at 1 µg/mL (MRSA strain USA300 [1]; 1 μg/mL compound) [%]	hemolysis at 10 µg/mL (MRSA strain USA300 [1]; 10 μg/mL compound) [%]	effect on the growth of the bacteria (MRSA strain USA300 [2])	activity at 1 µg/mL (MRSA strain USA300 [2]) [%]	activity at 10 µg/mL (MRSA strain USA300 [2]) [%]	Hemolysis (MRSA strain USA300 [1]; 1 μg/mL compound) [%]	Hemolysis (MRSA strain USA300 [1]; 10 μg/mL compound) [%]	Growth (MRSA strain USA300 [2]; 1 μg/mL compound) [%]	Growth (MRSA strain USA300 [2]; 10 μg/mL compound) [%]
Cc1cc(C(=O)COc2ccc(C(C)C)cc2)c(O)cc1O [4d-19]	greater inhibition of rabbit blood hemolysis	29 ± 0.5	1 ± 0.1	without affecting the growth of the bacteria	99.5	5.2	–	–	–	–
Cc1cc(C(=O)COc2cccc(F)c2)c(O)cc1O [4d-1]	–	–	53 ± 13.2	–	–	103	–	–	–	–
CCc1cc(C(=O)COc2ccccc2Cl)c(O)cc1O [4b-2]	–	–	–	–	–	–	80.6 ± 0.4	0.9 ± 0.0	102.4	78.9
CCCc1cc(C(=O)COc2ccc(I)cc2)c(O)cc1O [4e-8]	greater inhibition of rabbit blood hemolysis	27.6 ± 2.7	16.7 ± 0.5	without affecting the growth of the bacteria	99.5	89.9	–	–	–	–
CCc1cc(C(=O)COc2ccc(C(=O)OC)cc2)c(O)cc1O [4b-29]	–	–	–	–	–	–	144.8 ± 20.6	4.5 ± 0.3	106.1	90.2
CCc1cc(C(=O)COc2cccc(C(=O)O)c2)c(O)cc1O [4b-24]	–	–	–	–	–	–	–	70.3 ± 3.4	–	106.3
Cc1cc(C(=O)COc2ccc(C(C)(C)C)cc2)c(O)cc1O [4d-20]	greater inhibition of rabbit blood hemolysis	22.9 ± 0.5	-0.6 ± 0.1	without affecting the growth of the bacteria	104	0.9	–	–	–	–
O=C(COc1ccc(-c2ccccc2)cc1)c1ccc(O)cc1O [4a-21]	–	–	–	–	–	–	–	29.4 ± 2.9	–	100.4
CCCc1cc(C(=O)COc2c(F)c(F)c(F)c(F)c2F)c(O)cc1O [4e-18]	–	41.9 ± 0.4	-2.9 ± 0.4	–	97.5	1.3	–	–	–	–
O=C(COc1cc(F)cc(F)c1)c1ccc(O)cc1O [4a-15]	–	77 ± 2.4	7.8 ± 2.5	–	97.5	95.8	–	–	–	–
O=C(COc1ccccc1)c1ccc(O)cc1O [4a-0]	–	–	–	–	–	–	–	31.5 ± 0.9	–	109.7
CCc1cc(C(=O)COc2ccc(C(C)(C)C)cc2)c(O)cc1O [4b-20]	–	50.6 ± 1.7	0.4	–	93.6	1	–	–	–	–
CCc1cc(C(=O)COc2cc(F)cc(F)c2)c(O)cc1O [4b-15]	–	49.3 ± 3.7	-0.4	–	107	63.9	–	–	–	–
Cc1cc(C(=O)COc2ccc(-c3ccccc3)cc2)c(O)cc1O [4d-21]	–	52.1 ± 10.8	5.7 ± 1.3	–	108	3.2	–	–	–	–
O=C(COc1ccc(-c2ccccc2)cc1)c1c(O)cc(O)cc1O [4c-21]	–	114 ± 16.9	3 ± 0.1	–	103	1.9	–	–	–	–
COC(=O)c1cccc(OCC(=O)c2ccc(O)cc2O)c1 [4a-28]	–	–	24.2 ± 2	–	–	100	–	–	–	–
Cc1cc(C(=O)COc2ccccc2C)c(O)cc1O [4d-9]	–	–	43 ± 8.4	–	–	102	–	–	–	–
Cc1cc(C(=O)COc2ccc(F)c(F)c2)c(O)cc1O [4d-14]	–	221 ± 20.5	3.1 ± 0.3	–	106	109	–	–	–	–
CCc1cc(C(=O)COc2ccc(I)cc2)c(O)cc1O [4b-8]	–	111 ± 10	-0.3	–	102	17.7	–	–	–	–
Cc1ccccc1OCC(=O)c1ccc(O)cc1O [4a-9]	–	113 ± 4.4	14 ± 0.6	–	104	89.8	–	–	–	–
O=C(COc1ccc(F)cc1)c1ccc(O)cc1O [4a-6]	–	–	39.7 ± 3.8	–	–	106	–	–	–	–
